The structures appear in SMILES notation. Screen size: about 310,000 compounds; about 14,000 (4.5%) showed an effect of 50% or more. The effect is printed as a negative number. This is one part of the list.
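Note: peak tail current of the secondary pulse compared with the same well before compound.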

human ether-à-go-go-related gene (hERG) potassium channel, sequence (Q12809 whole entry, looked up): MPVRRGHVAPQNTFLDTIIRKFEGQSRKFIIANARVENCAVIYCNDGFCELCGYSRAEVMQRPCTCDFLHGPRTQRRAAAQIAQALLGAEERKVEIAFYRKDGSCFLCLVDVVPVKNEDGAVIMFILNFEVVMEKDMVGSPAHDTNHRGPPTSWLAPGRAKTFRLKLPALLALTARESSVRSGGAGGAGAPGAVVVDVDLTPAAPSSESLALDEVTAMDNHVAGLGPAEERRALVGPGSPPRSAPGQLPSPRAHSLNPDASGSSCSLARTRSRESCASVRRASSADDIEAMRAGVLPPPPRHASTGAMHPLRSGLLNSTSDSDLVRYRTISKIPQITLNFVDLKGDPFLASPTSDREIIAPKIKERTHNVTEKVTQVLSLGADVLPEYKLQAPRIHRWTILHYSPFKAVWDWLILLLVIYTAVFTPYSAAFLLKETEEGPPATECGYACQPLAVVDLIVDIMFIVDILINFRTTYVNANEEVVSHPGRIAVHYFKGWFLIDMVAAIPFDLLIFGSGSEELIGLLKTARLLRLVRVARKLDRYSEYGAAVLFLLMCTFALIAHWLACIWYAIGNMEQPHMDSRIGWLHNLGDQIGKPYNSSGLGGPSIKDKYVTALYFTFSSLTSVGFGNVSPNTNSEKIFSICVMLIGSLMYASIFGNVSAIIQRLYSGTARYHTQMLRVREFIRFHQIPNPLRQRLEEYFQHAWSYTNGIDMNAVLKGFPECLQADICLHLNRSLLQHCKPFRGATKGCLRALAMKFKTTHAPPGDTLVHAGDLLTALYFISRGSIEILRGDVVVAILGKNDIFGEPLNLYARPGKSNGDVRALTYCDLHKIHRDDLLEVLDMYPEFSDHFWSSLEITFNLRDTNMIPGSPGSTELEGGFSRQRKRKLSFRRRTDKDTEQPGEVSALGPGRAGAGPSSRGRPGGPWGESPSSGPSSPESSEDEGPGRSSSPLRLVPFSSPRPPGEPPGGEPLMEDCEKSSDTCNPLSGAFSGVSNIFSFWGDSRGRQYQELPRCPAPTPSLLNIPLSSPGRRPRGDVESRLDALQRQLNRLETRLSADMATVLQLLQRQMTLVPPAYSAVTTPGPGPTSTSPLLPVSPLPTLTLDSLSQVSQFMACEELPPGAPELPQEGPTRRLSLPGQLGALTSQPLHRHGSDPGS

This experiment concerns the target human ether-à-go-go-related gene (hERG) potassium channel (human, UniProt Q12809). The experiment in a line: primary screen, population patch clamp on CHO cells stably expressing hERG.
For the compound `COc1cc(C(=O)Nc2nnc(CC(C)(C)C)s2)c([N+](=O)[O-])cc1OC`, the “hERG current change (%, negative = inhibition) at 10uM” value is recorded as 8.72%.

On to `CCCN(c1ccccc1F)S(=O)(=O)c1cc(-c2cc(C)no2)ccc1OC`, for which the “hERG current change (%, negative = inhibition) at 10uM” value is 6.91%.

As for `COc1ccc(CCNC(=O)C(NC(=O)OCc2ccccc2)C(C)C)cc1OC` (centres unmarked), the “hERG current change (%, negative = inhibition) at 10uM” value is listed as 6.52%.

Regarding `O=[N+]([O-])c1cc(-c2csc(NCCc3nc4cc(Cl)c(Cl)cc4n3CCCO)n2)ccc1Cl`, the “hERG current change (%, negative = inhibition) at 10uM” value is on record as 3.05%.

Regarding `C/C(=N\NC(=O)CSc1nc2ccccc2[nH]1)c1ccncc1`, the “hERG current change (%, negative = inhibition) at 10uM” value is given as -1.11%.

In the case of `O=C(CCC(=O)N(CC(=O)NC1CCCC1)C1CCCC1)Nc1ccccn1`, the “hERG current change (%, negative = inhibition) at 10uM” value was -15.7%.

For the compound `Nn1c(Cc2ccccc2F)nnc1SCCOc1ccc(Cl)cc1`, the “hERG current change (%, negative = inhibition) at 10uM” value was -14.1%.

On to `COc1ccc(-c2noc(CN(C(=O)c3ccc4c(c3)OCO4)C(C)C)n2)cc1OC`, for which the “hERG current change (%, negative = inhibition) at 10uM” value is recorded as -6.78%.

In the case of `Cn1cc(Br)c(C(=O)NNC(=O)Cc2ccc(Cl)cc2)n1`, the “hERG current change (%, negative = inhibition) at 10uM” value was found to be 3.6%.

With `O=C(/C=C/c1ccco1)NCC1OCCc2ccccc21` (centres unmarked), the “hERG current change (%, negative = inhibition) at 10uM” value was determined as 16.7%.

Take `O=C1CN(S(=O)(=O)c2ccccc2)CC(=O)N1CCc1ccccc1`: the “hERG current change (%, negative = inhibition) at 10uM” value stood at 11.6%.

As to `CC(C)(C)CN1CCN(CCCc2ccccc2)C(CCO)C1` (centres unmarked), the “hERG current change (%, negative = inhibition) at 10uM” value was -53.7%.

Regarding `O=C(c1cc2cccc([N+](=O)[O-])c2oc1=O)N1CCOCC1`, the “hERG current change (%, negative = inhibition) at 10uM” value amounted to 3.66%.

For `C/C(=N\NC(=O)c1csc(C)c1C)c1ccco1`, the “hERG current change (%, negative = inhibition) at 10uM” value is -12%.

As for `Cc1cccc(N(CC(N)=O)C2SC(=O)NC2=O)c1` (centres unmarked), the “hERG current change (%, negative = inhibition) at 10uM” value is listed as -17.3%.

Regarding `CC(=O)N1CN(C2CCCC2)Cc2c1sc1c2CCCC1`, the “hERG current change (%, negative = inhibition) at 10uM” value is 3.82%.

For the compound `CSc1ccccc1NC(=O)CN(C)Cc1ccc(Br)cc1`, the “hERG current change (%, negative = inhibition) at 10uM” value was -12.3%.

`COc1ccc(CCn2c(C(C)C)nc3oc4ccccc4c(=O)c3c2=O)cc1`: the “hERG current change (%, negative = inhibition) at 10uM” value was -75.3%.

Consider `Cc1onc(-c2c(F)cccc2Cl)c1C(=O)Nc1sc2c(c1C(N)=O)CCC2`, for which the “hERG current change (%, negative = inhibition) at 10uM” value is on record as -9.23%.

In the case of `Cc1ccsc1CN(C)C(=O)C(NC(=O)c1cccc(S(=O)(=O)N2CCOCC2)c1)C(C)C` (centres unmarked), the “hERG current change (%, negative = inhibition) at 10uM” value is given as -37.7%.

Turning to `CSc1ccc(/C=C(\C(=O)O)c2ccc(S(=O)(=O)N3CCCC3)s2)cc1`, the “hERG current change (%, negative = inhibition) at 10uM” value was -2.55%.

Regarding `CCOC(=O)C1(CCCc2ccccc2)CCN(C(=O)COC)CC1`, the “hERG current change (%, negative = inhibition) at 10uM” value is reported as -25.9%.

For `CN(C)S(=O)(=O)c1cccc(NC(=O)COc2ccc3ccccc3c2)c1`, the “hERG current change (%, negative = inhibition) at 10uM” value is on record as -7.08%.

As to `COC(=O)c1[nH]c2ccc(Cl)cc2c1NC(=O)Oc1ccccc1`, the “hERG current change (%, negative = inhibition) at 10uM” value came out at 2.98%.

Take `CC(C)C[C@H](NC(=O)N1CCn2c1nc1ccccc12)C(=O)NC1CC1`: the “hERG current change (%, negative = inhibition) at 10uM” value is given as -3.4%.

Consider `CC(C)CCN1CCN(Cc2ccc(Oc3ncccn3)cc2)CC1CCO` (centres unmarked), for which the “hERG current change (%, negative = inhibition) at 10uM” value is reported as -9.21%.

With `CN(CC(=O)NCC(c1ccco1)N1CCCCC1)S(=O)(=O)c1ccc(Cl)cc1` (centres unmarked), the “hERG current change (%, negative = inhibition) at 10uM” value was -33.9%.

For `Cc1cc(NC(=O)C(C)C)ncc1NC(=O)c1cccc(F)c1`, the “hERG current change (%, negative = inhibition) at 10uM” value worked out at 9.05%.

As to `CN(C)S(=O)(=O)c1ccc(S(=O)(=O)NCc2ccc3c(c2)OCO3)cc1`, the “hERG current change (%, negative = inhibition) at 10uM” value was found to be 9.81%.

`FC(F)(F)c1ccc(Oc2ccc3ccccc3c2Br)nc1`: the “hERG current change (%, negative = inhibition) at 10uM” value worked out at 6.56%.

As for `Cc1[nH]c2ccccc2c1/C=N/NC(=O)c1cccc(F)c1`, the “hERG current change (%, negative = inhibition) at 10uM” value was 6.23%.

Regarding `NC(=O)Cn1c(=O)n(C2CCCCC2)c(=O)c2c3c(sc21)CCCCC3`, the “hERG current change (%, negative = inhibition) at 10uM” value is recorded as -6.3%.

In the case of `CCOc1ccc(CCNC(=O)c2ccc(CNS(=O)(=O)c3ccccc3)cc2)cc1OCC`, the “hERG current change (%, negative = inhibition) at 10uM” value turned out to be 8.71%.

Turning to `N=C1SC(c2ccccc2)C(=O)N1c1ncc(Cc2ccccc2Cl)s1` (centres unmarked), the “hERG current change (%, negative = inhibition) at 10uM” value turned out to be 1.65%.

Regarding `C=CCOc1ccc(/C=C/C(C)=N\O)cc1`, the “hERG current change (%, negative = inhibition) at 10uM” value is listed as 4.84%.

Regarding `CCC(=O)N(Cc1ccc(S(N)(=O)=O)cc1)C1CC(=O)N(c2ccc(OC)cc2)C1=O` (centres unmarked), the “hERG current change (%, negative = inhibition) at 10uM” value is 10.3%.

Consider `COC(=O)C1CCN(S(=O)(=O)Cc2ccccc2Cl)CC1`, for which the “hERG current change (%, negative = inhibition) at 10uM” value was found to be 16.6%.

Take `CN1CCC(OC(=O)c2cccc(Br)c2)CC1.Cl`: the “hERG current change (%, negative = inhibition) at 10uM” value is -36.3%.

As for `COc1cccc(OCCCCN2CC(C)OC(C)C2)c1.O=C(O)C(=O)O` (centres unmarked), the “hERG current change (%, negative = inhibition) at 10uM” value was -4.73%.

With `Cc1ccccc1N1CCN(C2CCCN(C(=O)c3cc(CC(C)C)nn3C)C2)CC1` (centres unmarked), the “hERG current change (%, negative = inhibition) at 10uM” value is recorded as -31.7%.

Consider `CC1CCN(S(=O)(=O)c2cn(CC(=O)Nc3ccc(C#N)cc3)cn2)CC1`, for which the “hERG current change (%, negative = inhibition) at 10uM” value turned out to be 7.1%.

As to `COc1ccc2c(c1)c(C(=O)N/N=C/c1ccc(O)c(O)c1)c(C)n2C`, the “hERG current change (%, negative = inhibition) at 10uM” value amounted to 9.18%.

Regarding `O=C(Cn1cc([N+](=O)[O-])cn1)NCc1ccccc1`, the “hERG current change (%, negative = inhibition) at 10uM” value is 20.9%.

With `O=C(OC1CCOC1=O)C1CCN(S(=O)(=O)c2c(Cl)cccc2Cl)CC1` (centres unmarked), the “hERG current change (%, negative = inhibition) at 10uM” value was -8.18%.

`Cc1ccc(NC(=O)N2CCCC2C(=O)NCc2cccs2)cc1` (centres unmarked): the “hERG current change (%, negative = inhibition) at 10uM” value is reported as -2.17%.

Regarding `COCCOc1ccc(C(F)(F)F)cc1NC(=O)c1ccc(C)cc1`, the “hERG current change (%, negative = inhibition) at 10uM” value is recorded as -0.151%.

On to `CCCc1nc2ccccc2c(C(=O)OCC(=O)Nc2ccc(S(=O)(=O)N3CCOCC3)cc2)c1CC`, for which the “hERG current change (%, negative = inhibition) at 10uM” value is reported as 12%.

Consider `O=C(CSc1nc2c(sc3ccccc32)c(=O)n1CCCN1CCCC1)NCc1ccco1`, for which the “hERG current change (%, negative = inhibition) at 10uM” value is on record as -73%.

Consider `Cc1nn(C)c(C)c1CNC(=O)Nc1ccc2c(c1)OCO2`, for which the “hERG current change (%, negative = inhibition) at 10uM” value amounted to 12%.

Take `Cc1cc(SCC(=O)NC2CCCC2)nc2ccccc12`: the “hERG current change (%, negative = inhibition) at 10uM” value is listed as -6.05%.

As to `CCC(=O)N1CCc2cc(S(=O)(=O)NCCC(=O)N3CCN(Cc4ccccc4)CC3)ccc21`, the “hERG current change (%, negative = inhibition) at 10uM” value was -15.9%.

For the compound `CCC(C(=O)OC)n1cnc2c(nnn2-c2cccc(Cl)c2)c1=O` (centres unmarked), the “hERG current change (%, negative = inhibition) at 10uM” value was -3.07%.

In the case of `COC(=O)c1cc(NC(=O)CSc2nnc(CN3CCOCC3)n2C)ccc1Cl`, the “hERG current change (%, negative = inhibition) at 10uM” value was -9.74%.

As for `COC(=O)/C(=N/Nc1ccccc1OC)N1CCCc2ccccc21`, the “hERG current change (%, negative = inhibition) at 10uM” value was -0.396%.

On to `CCCCNC(=O)COC(=O)c1ccc(N(C)C)cc1`, for which the “hERG current change (%, negative = inhibition) at 10uM” value stood at 34.8%.

Consider `CC(=O)c1cccc(N=C2NC(=O)CS2)c1`, for which the “hERG current change (%, negative = inhibition) at 10uM” value is 14.6%.

For the origin of these results see paper PMC4336329 (PLoS ONE, 2015).
